From PMC4336329 (PLoS ONE, 2015)
In all, about 310,000 compounds went through this assay and about 14,000 (4.5%) showed an effect of 50% or more. The effect is printed as a negative number. The list shows a part of the results.

Target: human ether-à-go-go-related gene (hERG) potassium channel (human, UniProt Q12809)
Experiment: primary screen, population patch clamp on CHO cells stably expressing hERG
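Note: peak tail current of the secondary pulse compared with the same well before compound.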

human ether-à-go-go-related gene (hERG) potassium channel, sequence (Q12809 whole entry, looked up): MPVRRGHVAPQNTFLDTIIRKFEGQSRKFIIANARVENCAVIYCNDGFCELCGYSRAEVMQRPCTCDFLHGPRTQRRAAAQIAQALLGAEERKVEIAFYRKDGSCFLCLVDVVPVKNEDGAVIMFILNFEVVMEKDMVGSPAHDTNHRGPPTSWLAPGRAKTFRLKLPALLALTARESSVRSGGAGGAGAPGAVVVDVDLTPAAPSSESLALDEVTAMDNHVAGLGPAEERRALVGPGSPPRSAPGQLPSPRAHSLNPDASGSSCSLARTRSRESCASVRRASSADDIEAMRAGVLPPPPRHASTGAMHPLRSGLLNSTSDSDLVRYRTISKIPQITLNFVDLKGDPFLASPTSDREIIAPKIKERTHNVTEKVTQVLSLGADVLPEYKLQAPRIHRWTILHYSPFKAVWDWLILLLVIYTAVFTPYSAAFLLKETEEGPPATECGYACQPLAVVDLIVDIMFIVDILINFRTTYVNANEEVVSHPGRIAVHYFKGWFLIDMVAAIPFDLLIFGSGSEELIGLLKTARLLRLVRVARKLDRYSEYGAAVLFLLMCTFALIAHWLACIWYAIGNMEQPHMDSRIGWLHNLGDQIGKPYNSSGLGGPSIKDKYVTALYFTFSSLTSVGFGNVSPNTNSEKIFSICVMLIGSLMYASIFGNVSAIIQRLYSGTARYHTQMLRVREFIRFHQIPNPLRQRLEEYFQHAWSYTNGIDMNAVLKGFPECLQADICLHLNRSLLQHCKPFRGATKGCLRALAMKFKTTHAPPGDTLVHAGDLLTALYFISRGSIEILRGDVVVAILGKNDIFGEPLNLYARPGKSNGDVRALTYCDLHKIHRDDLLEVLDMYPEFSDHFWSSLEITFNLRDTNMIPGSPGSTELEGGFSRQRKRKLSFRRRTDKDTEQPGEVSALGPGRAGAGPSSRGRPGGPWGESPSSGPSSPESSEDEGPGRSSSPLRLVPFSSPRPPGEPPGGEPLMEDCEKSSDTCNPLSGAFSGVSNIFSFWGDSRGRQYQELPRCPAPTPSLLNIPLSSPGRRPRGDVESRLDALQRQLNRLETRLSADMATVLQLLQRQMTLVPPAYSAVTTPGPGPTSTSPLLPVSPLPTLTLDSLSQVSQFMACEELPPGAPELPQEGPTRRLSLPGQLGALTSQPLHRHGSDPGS

Structure (SMILES)	hERG current change (%, negative = inhibition) at 10uM
CCOC(=O)c1c(-c2cccs2)csc1NC(C)=O	-1.29%
CCOC(=O)C1=C(N)OC2=C(C(=O)CC(C)(C)C2)C1c1cccs1 (stereo not shown)	-11.6%
CC(Nc1nc(N2CCCC2)nc2ccccc12)c1ccccc1 (stereo not shown)	-79.2%
COc1ccc(CN2CCN(C(=O)C3CCN(S(=O)(=O)c4cccs4)CC3)CC2)c(OC)c1OC	-5.17%
CC(C)N(Cc1cnn(C)c1)C(=O)c1ccc(OC2CCN(Cc3ccccn3)CC2)cc1	7.84%
COC(=O)c1ccc(CSc2nc3ccc(C)cc3[nH]2)o1	3.55%
O=C(O)/C=C/c1cn(-c2ccccc2)nc1-c1cccc([N+](=O)[O-])c1	18%
Cc1ccc2[nH]c(C(=O)N/N=C/c3ccccc3C(=O)O)c(-c3ccccc3)c2c1	7.67%
Cc1nn(CCOc2cccc(Cl)c2)c(C)c1[N+](=O)[O-]	25.7%
CC[C@H](NC(=O)c1c(C)c(-c2ccccc2)nc2ccccc12)c1ccccc1	19.1%
COc1ccc(OC)c(-c2csc(N(C)C(=O)c3ccco3)n2)c1	3.36%
COCCN(C(=O)Nc1ccccc1)C(C)c1cccnc1 (stereo not shown)	6.61%
N#CC1(NC(=O)CSc2nnc(C3CC3)n2C2CC2)CCCCC1	-8.52%
CN(C)S(=O)(=O)Nc1ccc(NS(=O)(=O)N(C)C)c(S(=O)(=O)c2ccccc2)c1	-3.79%
CC(=O)NCCc1c(C)n(Cc2ccccc2)c2ccccc12	-4.31%
Cc1cc(CCN2CCC(=O)NC2=S)ccc1OC(C)C	-3.4%
COc1cc(NC(=O)CCCc2c[nH]c3ccccc23)cc(OC)c1	3.51%
CCCOC(=O)CC1C(=O)NCCN1Cc1ccc(F)cc1 (stereo not shown)	3.35%
O=C(Nc1ccc(-c2csc(Nc3cccc(C(F)(F)F)c3)n2)cc1)c1ccccc1	18.7%
COc1ccc(-n2cnc3cc(C(=O)N4CCOCC4)ccc32)cc1	-15.6%

Structure (SMILES)	hERG current change (%, negative = inhibition) at 10uM
COC(=O)c1ccc(CSc2nnc(N)s2)cc1	-4.61%
COC(=O)CNC(=O)c1ccc(F)cc1	15.1%
N=c1c(S(=O)(=O)c2ccc(Cl)cc2)cc2c(=O)n3ccccc3nc2n1CCc1ccccc1	4.68%
COc1ccc(CNC(=O)CCCC2=NS(=O)(=O)c3ccccc3N2)cc1	23.5%
O=C(NC(=S)NNC(=O)c1ccccc1O)c1cccnc1	23.1%
COc1ccccc1OCCCOc1c(Cl)cc(C)cc1Cl	19.2%
Cc1ccnn1CC(=O)N/N=C/c1ccco1	-7.8%
O=C(NC1CCSc2ccccc21)c1cccc([N+](=O)[O-])c1 (stereo not shown)	-21.1%
CC(NC(=S)Nc1ccc(F)cc1)C(c1cccs1)N1CCOCC1 (stereo not shown)	-0.917%
Cc1cc(Br)cc(C)c1NC(=O)c1ccc(C#N)cc1F	-21.2%
Cc1ccc(/C=N/NC(=O)CSc2nc3ccccc3[nH]2)o1	-3.01%
Cc1cnc(C(=O)OCc2ccc(C#N)cc2)cn1	-12.5%
CCn1c(SCC(=O)NNC(=O)Cc2ccccc2)nnc1-c1ccccc1	-10.2%
COc1ccc(N2CCN(CC(O)COC(c3ccccc3)c3ccccc3)CC2)cc1 (stereo not shown)	-64.9%
O=C(O)CN1C(=O)/C(=C\c2cccc(OCc3ccc(Cl)cc3)c2)SC1=S	18.2%
O=c1c2ccccc2cnn1CCOc1ccccc1	5.4%
Cc1cccc(NC2=NCC(=O)N2Cc2cccs2)c1.Cl	7.58%
Cc1ccc(CS(=O)(=O)c2ncc(Cl)c(C(=O)Nc3ccc(OC(F)F)cc3)n2)cc1	5.68%
COc1cc(C(=O)NCC(=O)N/N=C/c2c(C)[nH]c3ccccc23)cc(OC)c1OC	15.7%
COc1ccc(Cl)cc1S(=O)(=O)N1CCC(C(=O)NC2CC2)CC1	-3.03%

Structure (SMILES)	hERG current change (%, negative = inhibition) at 10uM
COc1ccc(S(=O)(=O)N2CCC(NC(=O)c3ccccc3)CC2)cc1	17.8%
CC(=O)NC(CC(=O)O)c1ccc(F)cc1 (stereo not shown)	0.22%
C=C(C)CN(CC)C(=O)CC1C(=O)NCCN1C (stereo not shown)	14.5%
CC(=O)Nc1ccc(NC(=O)c2c([N+](=O)[O-])c(C(C)(C)C)nn2C)cc1	-5.95%
Cc1ccc(C)c(S(=O)(=O)NCc2ccc(C(=O)N3CCOCC3)cc2)c1	-9.34%
COc1ccc(/C=N/N2CCN(C3c4ccccc4-c4ccccc43)CC2)cc1O	7.09%
CN(CCc1ccccn1)Cc1ccc(Cl)cc1Cl	-64.3%
COC(=O)c1cccc(NC(=S)NCCC2=CCCCC2)c1	11.3%
CC(=O)c1ccc(NC(=O)COC(=O)c2c[nH]c3ccccc23)cc1	7.78%
C=CCNC(=O)COC(=O)c1ccccc1C(=O)N(C)C1CCCCC1	5.15%
O=C1C2C3CCCC3=C3CCCC3C2C(=O)N1c1ccccc1 (stereo not shown)	1.8%
COC(=O)c1ccc(C(=O)OC)c(NC(=O)CN2CCCCC2)c1	7.62%
CCc1nnc(NC(=O)CN2CCN(Cc3ccccc3Cl)CC2)s1	4.32%
COc1ccc(C2CNC(=O)C2)cc1OC1CCCC1 (stereo not shown)	-3.67%
C/C(Cn1cnc([N+](=O)[O-])n1)=N\NC(=O)c1ccc(Br)cc1	-28.1%
COc1cccc(/C=N/NC(=O)CSc2nnc(C)n2-c2ccccc2)c1O	-9.22%
CSc1nc(O)c(C(c2ccc(O)cc2)c2c(O)nc(SC)[nH]c2=O)c(=O)[nH]1	14.8%
CCC(C)NCCCCOc1ccc(C)cc1[N+](=O)[O-].O=C(O)C(=O)O (stereo not shown)	-23%
